Assay results taken from PubChem BioAssay AID588795 (National Center for Advancing Translational Sciences (NCATS), 2011).
Where “and” joins values, the source holds several entries; their conditions need not be identical. Identical values can stand only once. Hit rate of the full screen: of about 390,000 compounds, about 1,400 (0.36%) were called active. The shares of active, inactive and inconclusive entries below differ from those in the screen. The call rests on the fitted dose curve; in most records, active means well fitted inhibition curve with a large enough effect; inconclusive means small, poorly fitted or top-dose-only effect; inactive means no such curve, though single readings can be large or run the other way. Potencies beside an inconclusive call are fits to weak or partial responses and may not hold up.

target: Flap endonuclease 1 (Homo sapiens) (UniProt P39748); assay: qHTS Assay for the Inhibitors of Human Flap endonuclease 1 (FEN1).; further: nearly all actives have a fitted effect of over 65% in size; details: Recombinant FEN1 flap cleavage, fluorescence, 15 min; series mostly up to 114 µM
Sequence of UniProt P39748 (P39748 whole entry, looked up): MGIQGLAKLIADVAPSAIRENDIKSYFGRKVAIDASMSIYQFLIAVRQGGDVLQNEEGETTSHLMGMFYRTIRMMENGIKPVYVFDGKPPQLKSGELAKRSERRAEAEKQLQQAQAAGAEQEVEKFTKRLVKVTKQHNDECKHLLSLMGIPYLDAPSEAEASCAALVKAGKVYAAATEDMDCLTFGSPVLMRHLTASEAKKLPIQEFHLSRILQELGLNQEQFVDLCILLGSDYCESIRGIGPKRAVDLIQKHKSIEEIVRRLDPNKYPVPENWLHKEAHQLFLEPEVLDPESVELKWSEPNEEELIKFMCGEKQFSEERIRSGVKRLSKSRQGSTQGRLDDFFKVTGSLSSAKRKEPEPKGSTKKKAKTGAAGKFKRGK
Method in brief: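 Quantitative HTS format: each compound was titrated, incubated with 10 nM nuclease for 15 min at room temperature, then challenged with flap substrate at 50 nM final. Signal change over 15 min gave concentration–effect curves.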
Potency means the concentration at half of the fitted maximal effect; tags describe the fitted curve by direction and shape.

Structure (SMILES) | Potency
Fc1ccccc1/C=N/Nc1ncnc2nc[nH]c12 | inconclusive: 56.2 µM [inhibitor, partial curve, poor fit]
CCOc1ccc(C(=O)/C=C/c2cn(CC(O)CN3CCCCCC3)c3ccccc23)cc1 (stereo not drawn) | inconclusive: 39.8 µM [inhibitor, single point]
Nc1ccccc1SSc1ccccc1N | inconclusive: 17.8 µM [inhibitor, partial curve, poor fit]
COc1ccc(-c2[nH]c(-c3cccc(OC)c3)nc2SCC(=O)Nc2ccc3c(c2)OCO3)cc1 | inactive
COc1cc(NS(=O)(=O)c2ccc(NC(=S)NC(=O)/C=C/c3ccco3)cc2)ncn1 | active: 12.6 µM
O=C(c1cc2ccccc2oc1=O)N1CCN(c2ccc(Cl)cc2)CC1 | inactive
CCc1ccc(C(=O)c2cn(CC(=O)Nc3cccc(OC)c3)c3ccc(OC)cc3c2=O)cc1 | active: 39.8 µM
O=c1c2c3c(sc2[nH]c(=S)n1Cc1ccco1)CCC3 | inconclusive: 39.8 µM [inhibitor, partial curve]
CCCCOc1ccc(-c2nn(-c3ccccc3)cc2C2NC(=O)NC(C)=C2C(=O)OCC)cc1 (stereo not drawn) | inconclusive: 28.2 µM [inhibitor, partial curve, poor fit]
O=C(Nc1ccc(Br)cc1)c1ccc(F)c(S(=O)(=O)NCc2cccs2)c1 | inconclusive: 56.2 µM [inhibitor, partial curve, poor fit]
Cc1ccc2c(CC(=O)Nc3sccc3C(N)=O)coc2c1 | inconclusive: 89.1 µM [inhibitor, single point]
CC(NC(=O)CN(C1CCCCC1)S(C)(=O)=O)c1ccccc1 (stereo not drawn) | inconclusive: 70.8 µM [inhibitor, partial curve, poor fit]
Cc1cc(C)nc(/N=C(\N)Nc2ccc(-c3ccccc3)cc2)n1 | inconclusive: 89.1 µM [inhibitor, single point]
c1cncc(-c2csc(-c3cccnc3)n2)c1 | inactive
Cc1ccc(OCCCC(=O)NC(C)c2ccccc2)cc1 (stereo not drawn) | inactive
Cc1cccc(NC(=O)CNC(=O)c2ccccc2Cl)n1 | inconclusive: 89.1 µM [inhibitor, single point]
CCCCCCCCCCCCCCCCCCN(CCCCCCCCCCCCCCCCCC)c1ccc(/C=C/c2ccnc3ccccc23)cc1 | inactive
N=C(N)c1ccccc1 | inconclusive: 8.44 µM [inhibitor, single point]
COc1cccc(Cn2cc(/C=N/NC(=O)c3cc(O)cc(O)c3)c3ccccc32)c1 | inconclusive: 56.2 µM [inhibitor, partial curve, poor fit]
CCOC(=O)c1c(C)oc2ccc(N(C(=O)Oc3ccccc3)S(=O)(=O)c3ccc(CC)cc3)cc12 | inconclusive: 79.4 µM [inhibitor, partial curve, poor fit]
Nc1nc(Nc2ccccc2)nc(N2CCCC2)c1[N+](=O)[O-] | inconclusive: 89.1 µM [inhibitor, partial curve, poor fit]

Structure (SMILES) | Potency
Nc1nc(SCc2ccc([N+](=O)[O-])cc2)c2ncn([C@@H]3O[C@H](CO)[C@@H](O)[C@H]3O)c2n1 | inconclusive: 0.597 µM [inhibitor, partial curve, poor fit]
COc1cc(OC)cc(C(=O)Nc2nnc(NC(=S)Nc3ccccc3)s2)c1 | inactive
CCn1c(=O)sc2cc(NS(=O)(=O)c3ccc(F)c(C)c3)ccc21 | inactive
CC1(OC(=O)c2ccc(Cl)nc2)C(=O)C=C2C=C3CCCN3C=C2C1=O (stereo not drawn) | inconclusive: 10 µM [inhibitor, full curve, poor fit]
Cc1ccc(-c2nc(SCCOc3ccccc3C)n3[nH]c(=O)cc3n2)cc1 | inactive
Cc1c2c(cc3c1[nH]c1ccccc13)C=NCC2 | active: 50.1 µM
COc1cccc(C2=C(C(C)=O)Sc3nncn3N2C(C)=O)c1 | inconclusive: 89.1 µM [inhibitor, single point]
Cc1ccc(OCC(=O)Nc2nnc(S(=O)(=O)N3CCCCC3)s2)cc1 | inconclusive: 50.1 µM [inhibitor, partial curve]
COC(=O)c1ccccc1NC(=O)C1=CC(c2ccc(C)cc2)=NS(=O)(=O)N1C | inactive
COc1ccc(-n2cc(CNCc3cnc4ccccn34)c(-c3cccc(F)c3)n2)cc1 | inconclusive: 89.1 µM [inhibitor, partial curve, poor fit]
COc1ccc(/C=N/Nc2ncnc3sc(C)c(C)c23)cc1 | inconclusive: 79.4 µM [inhibitor, partial curve, poor fit]
O=C(Nc1ccc2oc(=O)ccc2c1)c1ccc(-c2cccc([N+](=O)[O-])c2)o1 | inconclusive: 63.1 µM [inhibitor, partial curve, poor fit]
CC(C)(C)c1ccc(Cn2c(Cc3ccccc3)nc3ccccc32)cc1 | inconclusive: 79.4 µM [inhibitor, partial curve, poor fit]
Nc1nc(Nc2ccc(Cl)cc2)nc(NCCO)c1[N+](=O)[O-] | inconclusive: 44.7 µM [inhibitor, partial curve, poor fit]
Cc1nc2ccccn2c1C(=O)N/N=C/c1ccc([N+](=O)[O-])o1 | inconclusive: 15.8 µM [inhibitor, full curve, poor fit]
CC(=O)Nc1ccc(S(=O)(=O)Nc2c(NC3CCCCC3)c3ccccc3oc2=O)cc1 | inactive
CCCCN(CC(O)COc1cccc(C)c1)CC(O)COc1cccc(C)c1 (stereo not drawn) | inconclusive: 17.8 µM [inhibitor, partial curve, poor fit]
Cc1ccc(NC(=S)N2CCC(c3ccc(C)cc3)C2)cc1 (stereo not drawn) | inconclusive: 50.1 µM [inhibitor, partial curve, poor fit]
COc1ccc(Nc2c3ccccc3nc3ccccc23)cc1 | inconclusive: 50.1 µM [inhibitor, partial curve, poor fit]
CC(=O)N1CCN(c2ccc(NCc3ccc(C)s3)cc2)CC1 | inconclusive: 25.1 µM [inhibitor, partial curve, poor fit]
O=C1C2CCCN2C(=O)N1CCCCN1CCN(c2cccc(Cl)c2)CC1 (stereo not drawn) | inconclusive: 100 µM [inhibitor, single point]

Structure (SMILES) | Potency
CCOc1ccc(-c2nnc(SCc3nc4ccccc4[nH]3)n2N)cc1 | inactive
O=C(O)Cc1cccc(=O)c(O)c1C(=O)O | inconclusive: 56.2 µM [inhibitor, partial curve, poor fit]
CCn1cc(C(=O)O)c(=O)c2cc(F)c(N/N=C/c3ccccc3)cc21 | inconclusive: 50.1 µM [inhibitor, partial curve]
COc1ccc(NC(=O)c2cc3c(=O)n(C)c4ccccc4c3n2C)cc1OC | inconclusive: 44.7 µM [inhibitor, partial curve, poor fit]
COc1c(C)cc(NC(=O)c2ccc3c(c2)NC(=O)CO3)cc1C | inactive
COc1ccc(C=NNc2ccc([N+](=O)[O-])cc2S(=O)(=O)Nc2ccccc2C(=O)O)cc1OC | inconclusive: 89.1 µM [inhibitor, partial curve, poor fit]
CCOc1cc(/C=C(\C#N)C(=O)Nc2cccc(C(=O)O)c2)ccc1OCc1ccc(Br)cc1 | inconclusive: 50.1 µM [inhibitor, partial curve]
COC(=O)CCCC1=CC2=CC(=O)C(C)(OC(=O)C3CCCC3)C(=O)C2=CO1 (stereo not drawn) | inconclusive: 44.7 µM [inhibitor, partial curve]
CCCC(=O)N1CCN(c2nc3ccc(Br)cc3s2)CC1 | active: 25.1 µM
CC(=O)C1=C(O)C(=O)N(CCc2c[nH]c3ccccc23)C1c1ccc(O)cc1 (stereo not drawn) | inconclusive: 39.8 µM [inhibitor, partial curve, poor fit]
CCOc1cc(/C=C2\SC(=S)N(NC(=O)c3cccnc3)C2=O)ccc1O | inconclusive: 50.1 µM [inhibitor, partial curve]
CCOC(=O)c1cc2[nH]c3ccccc3c2[n+](-c2ccc([N+](=O)[O-])cc2)c1N | inconclusive: 44.7 µM [inhibitor, partial curve]
Cc1ccc(-c2csc3nc4c5ccccc5c(NCCCN(C)C)nn4c(=O)c23)cc1 | active: 20 µM
COc1ccc(/C=C/C(=O)NC(=S)Nc2ccc(C(=O)O)cc2)cc1 | inconclusive: 89.1 µM [inhibitor, single point]
Cc1cccc(C)c1OCCCn1c(CCNC(=O)C2CCCCC2)nc2ccccc21 | inconclusive: 89.1 µM [inhibitor, partial curve, poor fit] and inconclusive: 44.7 µM [inhibitor, partial curve, poor fit]
O=C(O)CN1C(=O)/C(=C\c2cc(Br)ccc2OCc2ccccc2Cl)SC1=S | inconclusive: 89.1 µM [inhibitor, single point]
NC(=O)CSc1nc2c(sc3ccccc32)c(=O)n1CCCC(=O)NCC1CCCO1 (stereo not drawn) | inconclusive: 100 µM [inhibitor, single point]
CCOc1ccc(Cn2c(SCCCCC#N)nc3c2c(=O)n(C)c(=O)n3C)cc1OCC | inconclusive: 89.1 µM [inhibitor, partial curve, poor fit]
COc1ccc2[nH]c3c(C)c4ccncc4c(C)c3c2c1 | active: 2.82 µM
Nc1ccc2ccc(O)cc2c1 | inconclusive: 56.2 µM [inhibitor, partial curve, poor fit]
Cc1c(Cl)cnc(NC(=O)COC(=O)c2ccc([N+](=O)[O-])s2)c1Cl | inconclusive: 17.8 µM [inhibitor, partial curve, poor fit]
